In PMC4336329 (PLoS ONE, 2015):
Among all 310,000 compounds or so, about 2,200 (0.71%) showed an effect of 50% or more. The effect is printed as a negative number. Some of the results follow.

Each compound was assayed against human ether-à-go-go-related gene (hERG) potassium channel (human, UniProt Q12809) (assay: primary screen, population patch clamp on CHO cells stably expressing hERG).
Sequence of human ether-à-go-go-related gene (hERG) potassium channel (Q12809 whole entry, looked up): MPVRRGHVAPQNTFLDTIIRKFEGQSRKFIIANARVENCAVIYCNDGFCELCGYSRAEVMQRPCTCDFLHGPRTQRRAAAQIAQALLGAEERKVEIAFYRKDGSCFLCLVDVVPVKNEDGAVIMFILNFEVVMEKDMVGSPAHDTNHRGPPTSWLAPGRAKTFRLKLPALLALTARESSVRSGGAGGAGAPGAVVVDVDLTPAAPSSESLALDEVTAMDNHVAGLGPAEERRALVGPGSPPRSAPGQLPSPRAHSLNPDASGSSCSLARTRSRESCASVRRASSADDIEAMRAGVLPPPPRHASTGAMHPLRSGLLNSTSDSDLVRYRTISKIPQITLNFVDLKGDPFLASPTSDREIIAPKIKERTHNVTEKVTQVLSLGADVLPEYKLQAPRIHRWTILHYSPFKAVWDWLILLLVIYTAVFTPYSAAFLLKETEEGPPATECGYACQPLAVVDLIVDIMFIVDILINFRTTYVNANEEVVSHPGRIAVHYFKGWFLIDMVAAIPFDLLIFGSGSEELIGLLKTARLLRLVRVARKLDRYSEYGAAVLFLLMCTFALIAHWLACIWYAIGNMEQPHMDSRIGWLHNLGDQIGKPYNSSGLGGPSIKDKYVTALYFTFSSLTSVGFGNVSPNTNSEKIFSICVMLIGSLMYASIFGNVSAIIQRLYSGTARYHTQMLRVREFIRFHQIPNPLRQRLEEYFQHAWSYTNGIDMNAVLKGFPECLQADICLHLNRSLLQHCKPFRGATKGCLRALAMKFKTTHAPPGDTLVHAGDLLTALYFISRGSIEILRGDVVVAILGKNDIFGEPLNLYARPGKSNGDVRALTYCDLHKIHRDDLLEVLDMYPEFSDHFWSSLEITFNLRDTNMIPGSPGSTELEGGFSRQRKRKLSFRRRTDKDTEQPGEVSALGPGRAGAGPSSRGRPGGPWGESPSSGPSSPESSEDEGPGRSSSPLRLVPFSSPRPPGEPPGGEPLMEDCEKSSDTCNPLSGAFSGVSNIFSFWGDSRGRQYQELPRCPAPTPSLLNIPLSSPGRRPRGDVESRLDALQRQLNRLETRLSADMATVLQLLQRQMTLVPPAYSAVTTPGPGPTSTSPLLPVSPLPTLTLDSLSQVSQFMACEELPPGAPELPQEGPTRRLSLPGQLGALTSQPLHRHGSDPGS

Row | Compound | hERG current change (%, negative = inhibition) at 1uM [%]
1 | CC(=O)Nc1cc2c3c(c1)CC(=O)N3CCC2 | -20.2
2 | O=C(Nc1ccc(F)cc1)c1nc(S(=O)(=O)Cc2ccccc2)ncc1Cl | 15.8
3 | COc1cc2c(C)nc(C)c(C#N)c2cc1OC.Cl | 3.31
4 | COc1cc(C)c(Cl)cc1S(=O)(=O)n1ccnc1C | 13.2
5 | COc1cccc(-c2cnc(NCc3cc(Cl)ccc3O)n2C)c1.O=C(O)C(=O)O | -8.11
6 | O=C(NCc1ccc(Cl)cc1)c1noc2c1CCCC2 | 2.68
7 | CCCCN1C(=O)N(C)C2NC(=O)NC21 (centres unmarked) | 8.36
8 | CC(C)OCCCNC(=O)C(=O)NCCCOC(C)C | 3.34
9 | COc1ccc(CCNc2oc(COc3ccccc3)nc2C#N)cc1 | 9.11
10 | O=C(NCC1CCCO1)C1CCCN1C(=O)Nc1ccc(Cl)cc1 (centres unmarked) | 21.8
11 | CC(=O)NC1(C(F)(F)F)N=C2SCCN2C1=O (centres unmarked) | 5.43
12 | CC(Sc1nc2c(N)ncnc2n1CCOc1ccccc1)C(=O)O (centres unmarked) | 14.8
13 | CCC(NC(=O)c1ccccc1NC(=O)c1ccccc1)C(=O)OC (centres unmarked) | 13.3
14 | COCCNC(=O)c1nn2c(C(F)(F)F)cc(-c3ccccc3)nc2c1Cl | 14
15 | Brc1cccc2sc(N3CCCC3)nc12 | 4.59
16 | CN(C)C(=O)c1cc(C(=O)c2ccc(F)cc2C(F)(F)F)c[nH]1 | 14.3
17 | Cc1cc2cc(CNC(=S)NCc3ccccc3)ccc2n1C | 21.9
18 | Cc1ccc(NC(=S)N2CCC(N(C)CC3CCCO3)CC2)cc1C (centres unmarked) | 7.04
19 | CC(NC(=O)Nc1ccccc1)C(c1ccccc1)N1CCOCC1 (centres unmarked) | 20.6
20 | CCOC(=O)N1CCC(NC(=O)c2cc(C(=O)NCc3ccc(F)cc3)ccc2CO)CC1 | 3.58
21 | O=C(Nc1ccccc1)c1ccccc1OCc1ccc(S(=O)(=O)N2CCOCC2)cc1 | 13.9
22 | CCN(CC)S(=O)(=O)c1ccc(OC)c(NC(=O)CSc2cc(Cl)ccc2Cl)c1 | 7.06
23 | Cc1ccc(-c2ccc(CCC(=O)O)n2NC(N)=S)cc1 | 0.61
24 | O=C(O)Cc1ccc2ocnc2c1 | 8.07

Row | Compound | hERG current change (%, negative = inhibition) at 1uM [%]
25 | O=C(CCn1cnc2ccccc2c1=O)Nc1ccc2c(c1)OCCO2 | 18
26 | O=C(c1ccco1)C12CN3CN(CN(C3)C1)C2 | 14.7
27 | Nc1nonc1-n1nnc(C(=O)N/N=C/c2cc(Br)cs2)c1-c1ccccc1 | 14.8
28 | COc1ccc(CC(=O)Nc2ccc(-c3cn4ccccc4n3)cc2)cc1 | 10
29 | COc1ccc(Cl)cc1C(=O)NCC#N | 0.998
30 | COc1ccc(NC(=O)COc2cccc(C(F)(F)F)c2)cn1 | 16.8
31 | COCCCn1c(=O)c2sccc2n2c(CCCC(=O)NCc3ccccc3OC)nnc12 | 11.8
32 | O=C(Nc1ccccc1)C(=O)Nc1ccccn1 | 12
33 | Cc1ccc(Cc2cc(-c3ccc(C)cc3)n[nH]c2=O)cc1 | 9.7
34 | O=C1C2CCCCN2C(=O)N1CCCCN1CCN(c2ccc([N+](=O)[O-])cc2)CC1 (centres unmarked) | -80.7
35 | CCn1c(CNc2ccccc2Cl)nnc1SCCN1CCCCC1 | -11
36 | COC(=O)c1cccc(NC(=O)c2ccco2)c1 | 6.81
37 | COc1ccc(S(=O)(=O)N2CCCCCC2)cc1N | -6.16
38 | O=c1c2cc(F)ccc2sn1-c1ccc(F)cc1 | 12.5
39 | CCOC(=O)c1ccc(NC(=O)Nc2ccccn2)cc1 | 17.3
40 | Cc1cc(N)n(Cc2cccs2)n1 | -4.3
41 | CCOC(=O)c1sc(NC(=O)C2CC2)nc1C | 7.82
42 | CC1(C)Cc2c(sc3ncnc(N)c23)CO1 | 4.62
43 | Cc1ccccc1-c1cc(C(=O)N/N=C/c2cccnc2)c2ccccc2n1 | 5.16
44 | COc1ccc(C2=Nn3c(nnc3C(F)(F)F)SC2)cc1 | 7.11
45 | CCCCC(=O)Nc1cc([N+](=O)[O-])ccc1Cl | 15.5
46 | CN(C)C(CNC(=O)CCCN1C(=O)c2cccc3cccc(c23)C1=O)c1ccccc1 (centres unmarked) | -1.32
47 | COc1ccc(OC)c(/C=N/NC(=O)CCCC(=O)Nc2cccc(Br)c2)c1 | 14.8
